These results are taken from the RNAGym collection of RNA variant scans (doi:10.7554/elife.90254).

The source gives no read counts; variants with many changes may rest on few reads.

B1: OR4K15 (parent)
chain: GUUAACGGUCAUAGGCCAUGGAAACUAGGAGCACCAUUUCGCUGCCAGUGAAGAAAUGAACAAAGAAAAUCUGGGCCAGGCAGGCAUCAAAAGAAAUAGUCUUGCGCUCAACCAGAAAGUCUGUAAUCAUUUUAAGGGUA

This series covers variants of B1. As to the kind of experiment: self-cleavage, relative activity (ratio to wild type); higher = more cleavage; in vitro, sequencing; the parent is a self-cleaving ribozyme.
As for GUUAACGGUCAUAGGCCUUGGAAACUAGGAGCACCAUUUCGCUGCCAGUGCAGAAAUGAACUAAGAGAAUCUGGGCCAGGCAGGCAUCAAAAGAAAUAGUCUUGCGCUCAACCAGAAAGUCUGUAAUCAUUUUAAGGGUA [A18U A51C A62U A67G], the self-cleavage was determined as 1.07.
For the variant GUUAACGGUCAUAGGCCUUGGAGACUAGGAGCACCAUUUCGCUGCCAGUGAAGAAAUGAGCAAAGAAAAACUGGGCCAUGCAGGCAUCAAAAGAAAUAGUCUUGCGCUCAACCAGAAAGUCUGUAAUCAUUUUAAGGGUA [A18U A23G A60G U70A G79U], the self-cleavage turned out to be 0.2.
The same measure for GUUAACGGUCAUAGGCCUUGGAAACUAGGAGCACCAUUUCGCUGCCAGUGUAGGAAUGAACAAAGAAAAUCUGGGCCAGGCAGGCAUCAAAAGAAAUAGUCUUGCGCUCAACCAGAAAGUCUGUAAUCAUUUUAAGGGUA [A18U A51U A54G]: 1.4; for GUUAACGGUCAUAGGCCUUGGUAGCUAGGAGCACCAUUUCGCUGCCAGUGAAGGAAUGAACAAAGAAAAUCUGGGCCAGGCAGGCAUCAAAAGAAAUAGUCUUGCGCUCAACCAGAAAGUCUGUAAUCAUUUUAAGGGUA [A18U A22U A24G A54G]: 0.96.
The same measure for GUUAACGGUCAUAGGCCUUGGAAACUAGGAGCACCGUUUCGCUGCCAGUGAAGAAAUGAACAAAGAGAAUCUGGGCCAGGCAGGCAUCAAAAGAAAUAGUCUUGCGCUCAACCAGAAAGUCUGUAAUCGUUUUAAGGGUA [A18U A36G A67G A129G]: 1.9; for GUUAACGGUCAUAGGCCUUGGAAACUAGGGGCACCAUUUCGCUGCCAGUGAAGAAAUGAACAAAGAAAAUCUGGGCCAGGCAGGCAUCAAAAGAAAUAGUCUUGCGCCCAACCAGAAAGUCUGUAAUCAUUUUAAGGGUA [A18U A30G U108C]: 0.02.
The same measure for GUUAACGGUCAUAGGCCUUGGAAGCUAGGAGCACCAUUUCGCUGCCAGUGAAGAAAUGAACAAAGAAAAUCUGGGCCAGGCAGGCAUCAAAAGACAUAGUCUUGCGCUCAACCAGAAAGUCUGUAAUCAUUUUAAGGGUA [A18U A24G A95C]: 0.83; for GUUAACGGUCAUAGGCCUUGGAAACUAGGAGCGCCAUUUCGCUGCCAGUGAGGAAAUGAACAAAGAAAAUCUGGGCCAGGCAGGCAUCAAAAGAAGUAGACUUGCGCUCAACCAGAAAGUCUGUAAUCAUUUUAAGGGUA [A18U A33G A52G A96G U100A]: 1.29; for GUUAACGGUCAUAGGCCUUGGAAACUAGGAGCACCUUUUCGCUGCCAGUGAAGAAAUGAACAAAGAAAAUCUGGGCCAGGCAGGCAUCAAAAGAAAUGGUCUUGCGCUCAACCAGAAAGUCUGUAAUCAUUUUAAGGGUA [A18U A36U A98G]: 1.23.
As for GUUAACGGUCAUAGGCCUUGGAAACUUGGAGCACCAUUUCGCUGCCAGUGAAGAAAUGAACAAAGAAAAUCUGGGCCAGGCAGGCAUCAAAAGAAAUAGUCUUGCGCCCAACCAGAAAGUCUGUAAUCAUUUCAAGGGUA [A18U A27U U108C U133C], the self-cleavage amounted to 0.
On to GUUAACGGUCAUAGGCCUUGGAAACUAGGGGCACCAUUUCGCUGCCAGUGAAGAAAUGAACAAAGAAAAUCUGGGCCAGGCAGGCAUCAAAAGAAUUAGUCUUGCGCUCAACCAGAGAGUCUGUAAUCAUUUUAAGGGUA [A18U A30G A96U A117G], for which the self-cleavage worked out at 2.27.
In the case of GUUAACGGUCAUAGGCCUUGGAAACUAGGAGCACCUUUUCGCUGCCAGUGGAGAAGUGAACAAAGAAAAUCUGGGCCAGGCAGGCAUCAAAAGAAAUAGUCUUGCGCUCAACCAGAAAGUCUGUAAUCACUUUAAGGGUA [A18U A36U A51G A56G U130C] it was 0.68; in that of GUUAACGGUCAUAGGCCUUGGUAACUAGGAGCGCCAUUUCGCUGCCAGUGAAGAAAUGAACAGAGAAAAUCUGGGCCAGGCAGGCAUCGAAAGAAAUAGUCUUGCGCACAACCAGAGAGUCUGUAAUCAUUUUAAGGGUA [A18U A22U A33G A63G A89G U108A A117G], 0.05; in that of GUUAACGGUCAUAGGCCUUGGAAACUAGGAGCACCAUUUCGCUGCCAGUGAGGAAAUGAACAAAGAAAAUCUGGGCCAGGCAGGCAUCAAAAGAAAUAGUCUUGCGCUCAACCAGAAAGCCUGUAACCACUUUAAGGGUA [A18U A52G U120C U127C U130C], 0.36.
The same measure for GUUAACGGUCAUAGGCCUUGGAAACUAGGAGCACCAUUUCGCUGCCAGUGUAGAAAUGAACAAAGAAAAUCUGGGCCUGGCAGGCAUCAAAAGAAAUAGUCUUGCGCUCAACCAGAAAGUCUGUAAUCAUUUUAAGGGUA [A18U A51U A78U]: 0.44.
The same measure for GUUAACGGUCAUAGGCCUUGGAAACUAGGAGCACCAUUUCGCUGCCGUUGAAGAAAUGAACAAAGAAGAUCAGGGCCAGGCAGGCACCAAAAGAAAUAGUCUUGCGCUCAGCCAGAAAGUCUGUAAUCAUUCUAAGGGUA [A18U A47G G48U A68G U72A U87C A111G U132C]: 0.01; for GUUAACGGUCAUAGGCCUUGGAAACUAGGAGCACCAUUUCGCUGCCAGUGGGGAAAUGAACAAAGAAAAUCUGGGCCAGGCAGGCAUCAAAUGAAAUAGUCUUGCGCUCAACCAGAAAGUCUGUAAUCAUUUUAAGGGUG [A18U A51G A52G A92U A140G]: 1.28; for GUUAACGGUCAUAGGCCUUGGAAGCUAGGAGCACCAUUUCGCUGCCAGUGAAGAAAUGAACAAAGAAAAUCUGGGCCAGGCAGGCAUCAAAAGAAAUAGCCUUGCGCUCAACCAGAAAGUCUGUAAUCAUUUUAAGGGUA [A18U A24G U100C]: 1.51.
With GUUAACGGUCAUAGGCCUUGGAACCUAGGAGCACCAUUUCGCUGCCAGUGAAGAAAUGAACAAAGAAAAUCUGGGCCAGGCAGGCAUCAAAAGAAAUAGUCUUGCGCUCAACCAGAAAGUCUGUAAUCGUCUUAAGGGUA [A18U A24C A129G U131C], the self-cleavage is 0.96.
In the case of GUUAACGGUCAUAGGCCUUGGAAACUAGGAGCACCAUUUCGCUGCCAGUGGAGGAAUGAACAAAGAAAAUCUGGGCCAGGCAGGCAUCAAAAGAAAUAGUCUUGCGCUCAACCAGAAAGUCUGUAAUCAUUUUAAGGGUA [A18U A51G A54G] it was 0.92.
